# Screen size: about 52,000 compounds; about 4,300 (8.3%) were called active. Cut-off read from the data, not from the text of the source: active = survival mostly below about 52% (no sharp cut-off); inactive = mostly above about 56%. This is one part of the list.
# Tested on: DeltatarO mutant
# Experiment: growth inhibition of S. aureus wild type versus tarO mutant, primary screen, teichoic acid synthesis inhibitors, RN4220, OD600 (AID 463173)
# Details: OD600, 18 h, active compounds read low, screened at 18.75 µg/mL (by protocol)
row,SMILES,survival
1,CCC1CN(CC(=O)NCc2cccc(Br)c2)c2ccccc2S1 (stereo not given),inactive: 97%
2,Cc1ccc(S(=O)(=O)c2cn(CC(=O)Nc3ccc4c(c3)OCO4)c3ccc(C)cc3c2=O)cc1,inactive: 73%
3,COc1ccc(-c2nc3ccccc3o2)cc1NC(=O)c1cc([N+](=O)[O-])ccc1N1CCOCC1,active: 44%
4,COc1ccc(-c2ccc(CCC(=O)O)n2-c2ccccc2C(F)(F)F)cc1,inactive: 116%
5,CCOC(=O)CSc1nc2ccc(NC(=O)COc3ccccc3C)cc2s1,inactive: 85%
6,COC(=O)CN1C(=O)C(O)(CC(=O)c2ccc(F)cc2)c2ccccc21 (stereo not given),inactive: 63%
7,Cc1ccc(-n2c3nc(=O)[nH]c(=O)c-3cc3c(C)nn(-c4ccccc4)c32)c(C)c1,inactive: 90%
8,Cc1ccc(Cl)cc1NC(=O)CCS(=O)(=O)c1ccc2c(c1)n(C)c(=O)c(=O)n2C,inactive: 86%
9,Cc1nn(CC(=O)N2CCCCC2)c(=O)c2cc3occc3n12,inactive: 109%
10,Cc1ccc(C2C(C#N)=C(N)OC3=C2C(=O)CC(C)(C)C3)s1 (stereo not given),inactive: 69%
11,CCc1ccc(C2CC(=O)Oc3c2c(=O)n(C)c2ccccc32)cc1 (stereo not given),inactive: 65%
12,COc1ccc(N(C)C(=O)c2cc(S(=O)(=O)N3CCc4ccccc43)cn2C)c(OC)c1,inactive: 101%
13,Cc1cccc(-c2nc(C(N)=O)c3c(n2)n(-c2ccc4c(c2)OCO4)c(=O)n3C)c1,inactive: 90%
14,Cn1c(=O)c2nc(SCC(=O)Nc3ccc(Cl)c(Cl)c3)n(C)c2n(C)c1=O,inactive: 74%
15,Cc1cc(C)cc(NC(=O)Cn2cc(C(=O)c3ccccc3)c(=O)c3ccc(C)nc32)c1,inactive: 75%
16,Cc1ccc(CN(Cc2ccco2)c2cnc(S(C)(=O)=O)nc2C(=O)Nc2ccccc2Br)o1,inactive: 44%
17,O=C(CSc1oc(-c2ccccc2)nc1S(=O)(=O)c1ccccc1)c1ccccc1,inactive: 148%
18,CC1CCCCN1C(=O)CSc1nc2ccccc2c(=O)[nH]1 (stereo not given),inactive: 82%
19,COc1cccc(NC(=O)c2ccc3nc(Cc4ccccc4)oc3c2)c1,inactive: 66%
20,COc1ccc(-c2cc(C(=O)Nc3sc4c(c3C#N)CCCC4)no2)cc1OC,inactive: 63%
21,CCc1ccc(-n2c(SCc3cccc(F)c3)nc3[nH]ncc3c2=O)cc1,inactive: 80%
22,O=C1CSC2(CCCCC2)N1c1ccc(Cl)cc1,inactive: 90%
23,CC(NC(=O)C1CCN(S(=O)(=O)c2ccc3nc4c(c(C(=O)O)c3c2)CCCC4)CC1)c1ccccc1 (stereo not given),inactive: 122%

row,SMILES,survival
1,CC(C)Cn1cc(NC(=O)NCc2ccccc2Cl)c2ccccc2c1=O,inactive: 95%
2,Cc1nnc(NC(=O)C(=O)c2cc(C)n(-c3ccc(C)c(C)c3)c2C)s1,inactive: 100%
3,Nc1cc(N)nc(SCc2ccccc2C(F)(F)F)n1,inactive: 79%
4,Cc1ccc(C(=O)Nc2ccc3oc(-c4ccncc4)nc3c2)c(Cl)c1,inactive: 62%
5,Cc1cccc(-n2c(=O)c3c(c4cc(C)ccc4n3C)n(CC(=O)Nc3ccc(C)cc3C)c2=O)c1,inactive: 69%
6,COc1ccc(-c2cn3c(n2)sc2cc(C(=O)Nc4cc(OC)cc(OC)c4)ccc23)cc1,inactive: 79%
7,N#Cc1c(NC(=O)CS(=O)(=O)c2ccc(Cl)cc2)sc2c1CCCCC2,inactive: 81%
8,COc1ccc(-c2ccc(CCC(=O)O)n2CC(=O)Nc2cccc(C(F)(F)F)c2)cc1,active: 54%
9,Cc1nn(-c2ccccc2)c(OC(=O)C(C)(C)C)c1Sc1ccccc1,inactive: 62%
10,Cc1ccc2nc(NCCc3ccccc3)c3nncn3c2c1,inactive: 92%
11,Cc1ccc(Cn2c(SCc3ccc(C(=O)NC4CCCC4)cc3)nc3ccncc32)cc1,inactive: 70%
12,CCn1c(=O)cc(OCC(=O)Nc2ccc(C)c(F)c2)c2ccccc21,inactive: 60%
13,O=c1oc2ccccc2cc1-c1cn2cc(Cc3ccccc3F)sc2n1,active: 49%
14,Cc1ccc(-n2c(-c3ccco3)nc3c(cnn3-c3ccccc3C)c2=O)cc1,inactive: 124%
15,COc1ccc(CN2C(=O)N(c3ccc(C)cc3)C(=O)C2CC(=O)Nc2ccccc2)cc1OC (stereo not given),inactive: 80%
16,O=[N+]([O-])c1cc(-c2nc(-c3ccccc3)no2)ccc1NC1CCCC1,inactive: 105%
17,COc1ccc(N2CCN(C(=O)c3ccc4c(Cl)c5c(nc4c3)CCCC5)CC2)cc1,inactive: 103%
18,CCOc1ccccc1NC(=O)NC1CC2CCCC(C1)N2Cc1nnnn1CCc1ccccc1 (stereo not given),inactive: 85%
19,CCOC(=O)c1c(NC(C)=O)c2c3c(sc2n1Cc1nc(-c2cccc(C)c2)oc1C)CCCC3,inactive: 93%
20,Cc1ccc2nsnc2c1S(=O)(=O)N1CCCC1,inactive: 106%
21,COc1cc(-c2cc(OC)c3c(C)oc(C)c3c(=O)c2)ccc1OC(=O)c1ccccc1F,inactive: 89%
22,COc1ccccc1-c1nc(CNC(=O)Nc2ccccc2)c(C)o1,inactive: 98%
23,COc1ccccc1C(=O)NC1=NC(c2ccc(Br)cc2)CC(=O)N1 (stereo not given),inactive: 34%

row,SMILES,survival
1,CCOc1ccc(S(=O)(=O)Nc2cc(Cl)ccc2OC)c2cccnc12,inactive: 69%
2,Cc1ccc(/C=C/c2onc(C)c2S(=O)(=O)N2CCC(C(=O)Nc3cc(F)ccc3F)CC2)cc1,inactive: 73%
3,O=C(CC(c1ccc(Cl)cc1)S(=O)(=O)c1ccccc1)c1ccco1 (stereo not given),inactive: 88%
4,CCc1nn(CC(=O)NCCCOC)c(=O)c2cc3ccccc3n12,inactive: 96%
5,Cc1ccc(CN2CCCn3nc(C(=O)NCC(C)c4ccccc4)cc3C2=O)cc1 (stereo not given),inactive: 95%
6,COc1ccc(Nc2oc(/C=C/c3ccc(OC)c(OC)c3)nc2C#N)cc1,inactive: 73%
7,COCCn1c(=O)[nH]c2cc(C(=O)Nc3cccc(C(C)=O)c3)ccc2c1=O,inactive: 81%
8,Cc1cc(C)c2oc(C(=O)Nc3ccc(S(=O)(=O)Nc4nccc(C)n4)cc3)cc(=O)c2c1,inactive: 61%
9,CCCCOC(=O)c1ccc(Nc2nnc(-n3nc(C)cc3C)c3ccccc23)cc1,inactive: 98%
10,Cc1nnc2c3ccccc3nc(Nc3cccc(O)c3)n12,inactive: 101%
11,COc1cc(C2C(C(=O)Nc3ccccc3)=C(C)Nc3nnnn32)cc(OC)c1OC (stereo not given),inactive: 74%
12,COc1ccc(-c2noc(CN(C(=O)c3cc(OC)c(OC)cc3OC)C(C)C)n2)cc1,inactive: 74%
13,O=C(NC1CC(=O)N(c2ccc(Cl)cc2)C1)c1ccc(S(=O)(=O)N2CCOCC2)cc1 (stereo not given),inactive: 74%
14,O=C(O)CCC1NC(=O)NC1=O (stereo not given),inactive: 101%
15,CCOC(=O)c1ccc(NC(=O)c2nc(SCc3ccccc3F)ncc2Cl)cc1,inactive: 49%
16,Cc1ccc(Cl)cc1NC(=O)C1CCN(c2nc3ccccc3n3cccc23)CC1,inactive: 62%
17,CCCn1c2ccccc2c2cnn(CC(=O)NCCc3ccc(C)cc3)c(=O)c21,inactive: 128%
18,CCOc1ccc2nc(N3CCCC(C(=O)NCc4ccccc4OC)C3)sc2c1 (stereo not given),inactive: 92%
19,COc1ccc(NC(=O)CC2C(=O)N(c3cccc(OC)c3)C(=O)N2Cc2ccc3c(c2)OCO3)cc1 (stereo not given),inactive: 82%
20,Cc1ccc(-c2cn(-c3ccc(Cl)cc3)c(S(=O)(=O)CC(=O)Nc3ccccc3)n2)cc1,inactive: 62%
21,Cc1cc(C)cc(-n2ccn(Cc3ccc(F)cc3)c(=O)c2=O)c1,inactive: 71%
22,CCOc1ccc(S(=O)(=O)NCCc2sc3nc(-c4ccc(C)cc4)nn3c2C)cc1,inactive: 109%
23,CCCn1c(CCC(=O)Nc2ccccc2OC)nc2cccnc21,inactive: 88%

row,SMILES,survival
1,Cc1cccc(C)c1Nc1c(-c2ccc(O)cc2)nc2sccn12,active: 28%
2,O=c1oc2ccccc2cc1-c1cn2cc(Cc3ccc(Br)cc3)sc2n1,inactive: 66%
3,Cc1cc(-c2ccccc2)c(C#N)c(N)n1,inactive: 74%
4,Fc1ccc(Br)cc1C1C=C(c2ccc(Br)cc2)Nc2nnnn21 (stereo not given),inactive: 91%
5,CC1=Nc2cc(C(=O)NC(C)C)ccc2Sc2ccc(C)cc21,inactive: 73%
6,CC(C)NC(=O)C1CCN(C(=O)c2ccc(Cl)cc2)CC1,inactive: 88%
7,Cc1ccc(CNC(=O)CCCN2C(=O)COc3ccc(C)cc32)cc1,inactive: 85%
8,CN(C)/C(=N\O)c1nonc1N,inactive: 80%
9,O=C(CC1N=C2c3ccccc3N=C(SCC(=O)Nc3ccccc3F)N2C1=O)NCc1cccs1 (stereo not given),inactive: 91%
10,Cc1cccc(NC(=O)C(=O)NCCc2csc(-c3ccc(C(F)(F)F)cc3)n2)c1C,inactive: 102%
11,Cc1cc(C)cc(NC(=O)C2CCN(S(=O)(=O)c3cccc(-c4noc(C)n4)c3)CC2)c1,active: -5%
12,Cc1cc(NC(=O)CSc2ccccc2)no1,inactive: 88%
13,CCc1ccc(CN(C(=O)c2cc(=O)c3ccc(C)cc3o2)C2CCS(=O)(=O)C2)cc1 (stereo not given),inactive: 107%
14,O=C(O)c1cccc(N=NN2CCOCC2)c1,inactive: 80%
15,CC(C)Cn1c(=O)c2sccc2n2c(CCCC(=O)NC3CCCCC3)nnc12,inactive: 107%
16,COc1cccc(CNC(=O)CCCn2nc(C)c3c(C)n(-c4ccc(C)cc4)nc3c2=O)c1OC,inactive: 88%
17,CCN(CC)CCNC(=O)c1ccc(-n2c(-c3ccccc3)cc3c2CCCC3)cc1,active: 8%
18,CN(C)S(=O)(=O)c1ccc2c(c1)C(CC(=O)O)OC2=O (stereo not given),inactive: 99%
19,Cc1ccc(NC(=O)c2c(NC(=O)c3ccccc3)sc3c2CCC3)cc1,inactive: 76%
20,Cc1ccc2sc(N(Cc3cccnc3)C(=O)C3COc4ccccc4O3)nc2c1C (stereo not given),inactive: 76%
21,CC1CCc2c(sc(NC(=O)c3cc(-c4ccc(F)cc4)on3)c2C(N)=O)C1 (stereo not given),inactive: 74%
